From patent US20260062466A1
Changes are numbered by the printed parent chain.

B1: 506.C07 (antibody, V domains shown)
VH: QLQLQESGPGLVKPSETLSLTCTVSGGSISSSSYYWGWIRQPPGKGLEWIGSIYYSGSTYYNPSLKSRVTISVDTSKNQFSLKLSSVTAADTAVYYCARDTPYCSSTSCYMGDFDYWGQGTLVTVSS
VL: [about 100 residues left out here]PLFTFGPGTKVDIK
B2: 506.A09 (antibody, V domains shown)
VH: QVQLVESGGGVVQPGRSLRLSCAASGFTFSSYAMHWVRQAPGKGLEWVAVISYDGSNKYYADSVKGRFTISRDNSKNTLYLQMNSLRAEDTAVYYCARSPWELDAFDIWGQGTMVTVSS
VL: [about 100 residues left out here]FGPGTKVDIK
B3: 520.A06 (antibody, V domains shown)
VH: B2 VH with V50L, I51V, S99A, P100E, D104G, A105S, I108P, M114L
VL: [about 100 residues left out here]

Tests used:
Experiment in all cases: cell-based or functional assay
[1] = target: CHIKV-37997 (virus) (Chikungunya virus strain 37997)
[2] = target: CHIKV-LR 2006 (virus) (Chikungunya virus strain LR 2006)
[3] = target: ONNV (O'nyong'nyong virus, MP30) envelope glycoproteins (O'nyong'nyong virus strain MP30)

Row | Binder | FRNT neutralisation, 37997 EC50 [1] [µg/mL] | FRNT neutralisation, LR 2006 EC50 [2] [µg/mL] | FRNT neutralisation of ONNV, EC50 [3] [µg/mL]
1 | B1 | 0.333 | 0.515 | –
2 | B2 | 0.067 | 0.055 | < 0.05
3 | B3 | 0.06 | 0.005 | < 0.05
